The supplement of paper PMC11417369
Some of the results follow.

Each sequence was assayed on PfHDP1 homeodomain (GST-tagged) (assay: gcPBM binding intensity (ln(normalized median fluorescence intensity)); higher = stronger DNA binding).
Summary of the method: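 GST-fused DNA-binding domains of P. falciparum, expressed in E. coli, were applied at about 25 μg on average for 1 h to an Agilent 4 × 180k array of primer-extended double-stranded 36-bp intergenic genomic probes and negative controls. Binding intensity is the highest Masliner-normalised natural-log median intensity across replicate spots of either probe orientation, measured with Alexa488 anti-GST antibody and a 488 nm scan.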

Row | Sequence | gcPBM binding intensity (ln)
1 | CTTATATTTGGACACACACACAATAAAATGAAAAAA [CACACA_site6614] | 6.8
2 | AAAAAAAAAGACAAAAGTACAAAGGTTCATAATTTA [XGTACX_site3978] | 6.13
3 | GATTTACATTTTGATGAAAATAATAAAATGTGGAAA [TGCATGCA_negctrl_site409] | 6.4
4 | ATATTTTATTTTTAAAGTACAAAAGAAAAGAATAAT [XGTACX_site8247] | 6.56
5 | AACATCAAAATATGCACACAAACAATTAGCGGTAGT [CACACA_site2521] | 9.95
6 | AACAAAATAGGGAACACACACATGTCGATATATAAA [CACACA_site7265] | 6.71
7 | ATACACACATATATGTGTACATATACATATATATAT [XGTACX_site6744] | 8.56
8 | ATAATATGAAGAAGCACACTCAATTAAATACAGATA [CACACA_site4690] | 6.71
9 | CACAGACACGGACACACACACATATATATATATATA [CACACA_site5248] | 9.37
10 | ATATATATATAAAGCAGTACACACATTTATTTTAGA [XGTACX_site7226] | 8.41
11 | TATGAACTTTTGGGGGTGCCTTAAAATGTATATTCT | 7.15
12 | TCCCAATTTATTATGTGTACTTATTATATACATATA [XGTACX_site4033] | 6.68
13 | TATCAAAGTAGAAGAGATCGATGTCATATTGTGATG [GTGCAC_negctrl_site42] | 6.67
14 | TTATGAATACTTCAAGTGCATTTATTTTATATGACA | 8.23
15 | ATATTCTAAATAAAGGGTACACAAAAATAATTAAAG [XGTACX_site5529] | 6.9
16 | ATTGTGGATATTCTTACACACAAATTTATATATAAA [CACACA_site2601] | 6.4
17 | TTTTGTATATTATATGTACACACAATAAGTTAATAT [CACACA_site8207] | 6.71
18 | TATTTGTAATATTATACACACATTATGTATTACAAA [CACACA_site3386] | 6.92
19 | CATAAATATTTGTGTTGTACAAATATATATATTTAT [XGTACX_site7363] | 6.55
20 | TTGTGTGAGCAAGTAGTGCATAATATAAATAAAAAA [GTGCAC_site9802] | 9.89
21 | TGAAATTTGTTATATGCATGTAAAATATTACGACGA [TGCATGCA_site201] | 6.59
22 | AAAATTGAAGGTAGAAGTACATATTTATTTCAATAA [XGTACX_site8732] | 6.11
23 | TATATAATATATTTATGTACGTATTTAAAAATTTAT [XGTACX_site160] | 6.5

Row | Sequence | gcPBM binding intensity (ln)
24 | GAAGGAAATAAATCAACACACATATATTATATATAT [CACACA_site2188] | 7.11
25 | TGTATTTATTAATGTACACACATGCGTATGTTCGTT [CACACA_site5892] | 6.82
26 | AAGAATTATTTTTTATGTACTTATATGTCAATTTTC [XGTACX_site6676] | 6.35
27 | ATAGAATATTTTATTACACACAGAATAATAAAAAAT [CACACA_site6190] | 6.29
28 | TTATTTTTTTTAGCATATACAAATATATATATATAT [GTGCAC_negctrl_site4] | 8.98
29 | CTAAAAGGATGATGAATGCACTATTATTTATATGGA | 7.69
30 | TTTAAAAATATTTCACGTACGCATTTTAAAAAGTAT [XGTACX_site8026] | 6.45
31 | AAATAGTAAGAGATGGTGCGTTTCCTTTTTTTTTTT [GTGCAC_site9663] | 6.67
32 | TTTTTTTCATATATATGTACATAATTATATATGCAT [XGTACX_site3257] | 6.68
33 | TTAATTATATGGTAAACAAATAAATGTGAAAGGAAA [XGTACX_negctrl_site389] | 6.89
34 | CGTGGGAGCAGACACACACACACACCCATATATATA [CACACA_site334] | 6.67
35 | ATATTTATATGAATCACACACAAAAAATATAGAGAT [CACACA_site7775] | 6.66
36 | ACTGTGGGAATAACCACACACACACCCACATATATA [CACACA_site3542] | 6.54
37 | TTATTATATAAATAAAAAAAAAAAAAAAAAAAAAAA [CACACA_negctrl_site1455] | 5.95
38 | TATATACGCATGCGCACACACAAGTGGGAAATTTGG [CACACA_site1785] | 7.08
39 | AATATGTTTTTTAGATGTACAGATTAAATATTAAAA [XGTACX_site7308] | 6.37
40 | CATAAATACAAATATACACACATATATATATATATA [CACACA_site2633] | 9.4
41 | AAATCACAAAAAAAAAAAAAAATATATATATATATA [CACACA_negctrl_site10] | 9.28
42 | TAGAAATATATTTATTGTACATTGTATATATTATAT [XGTACX_site7584] | 6.26
43 | TTGAAGTGTACTATTTTATATATATATATACATTTT [CACACA_negctrl_site224] | 6.83
44 | ATTATGTGCCAATACACACACACATCTATATTTATA [CACACA_site6359] | 7.13
45 | TCTTTTTTTTTTACTAGTACTTAAAAAAAAAATATG [XGTACX_site4395] | 6.4
46 | TAATGTTCCTATATAGTGCAATTATGTTTTATTTCT | 8.94

Row | Sequence | gcPBM binding intensity (ln)
47 | TACGATGTTTTAAAATGTACATAAAAGTCACATAAG [XGTACX_site3297] | 6.32
48 | TTTTAATTTTTAAGACGTACTATCATTTGATAATAA [XGTACX_site3942] | 6.02
49 | TATTTATAAATATACGCACACATTAATATATATATA [CACACA_site3969] | 8.52
50 | ATATTATTTATTTTTAAATTATATTGATTATTTTTT [CACACA_negctrl_site451] | 5.81
51 | GTTGGTAGGCGGTACGGTACACGTAGTATTTTTCTT [XGTACX_site4213] | 6.4
52 | AGTATGTAAATGTGCCATATATATATTAAATACATA [CACACA_negctrl_site14] | 6.54
53 | TATGATAAATATGGAGCACACACACCGAAACATACA [CACACA_site8031] | 7.57
54 | AAGTGTTCTTGTTATACACACACATATATATATATA [CACACA_site8251] | 9.27
55 | TAGCATGATTTGCCTTGTACACAACCGTTTTAATAA [XGTACX_site7911] | 6.46
56 | AAAAAAAAAAAAAAAACACACAAACATCAAATTACT [CACACA_site6950] | 6.65
57 | AAATTTAAAAATAAAGAACACACATATGTAAAATAT [CACACA_site9252] | 6.84
58 | AATTTCAATTTCTGTTGTACACTTTTTAATAGTAAA [XGTACX_site4085] | 6.23
59 | TTTTGTATTTTTCACACACACATAAGTAAACAATAA [CACACA_site1899] | 6.81
60 | TATATTATATATATATGTACATATTATTATATCTAA [XGTACX_site3835] | 6.39
61 | TAAATGAAAATATGTACACACTTGAAAATTTTTATG [CACACA_site5599] | 6.58
62 | ATACAATAATATAAATGTACAAATTATATCTTCATT [XGTACX_site8994] | 6.35
63 | AAATTAAATATTATATTAATTCTTAAATTTTTTTTT [CACACA_negctrl_site439] | 5.68
64 | ATGTTGTGGATATATACACACATACATATTTATATA [CACACA_site6857] | 7.22
65 | AAACATATGGTATTTAAACACACAAAAAAGAAAGAA [CACACA_site8239] | 7.18
66 | TACAAGAACAAAAAATGTACGAAATAATTACAAATA [XGTACX_site5824] | 6.52
67 | AATCTTTTTAAATCTTGATTAATTTCGGGTATATAT [TGCATGCA_negctrl_site107] | 6.4
68 | TAATTATATAAATACACACACATACACCCAAATAAA [CACACA_site5819] | 7.35
69 | TATATACTATATATATGTACACAAAATTATTTTGAA [XGTACX_site8232] | 6.67

Row | Sequence | gcPBM binding intensity (ln)
70 | ATATGTAGTGTTATTTGTTCATTGTTTTAATTTTTA [CACACA_negctrl_site1394] | 6.75
71 | TATTATATATAATATTGTACATTAAAATATTAAAGA [XGTACX_site3698] | 6.26
72 | ATATGTATTAAGTGTACACATATAATGGGTTTTCTT [CACACA_site5328] | 6.82
73 | TTTATTTTAAAATATAGTACGCAAATAAAAATAAAT [XGTACX_site7783] | 7.06
74 | GGAACGTTCATATTTCCACACACAAAAAATAAATAT [CACACA_site9101] | 6.81
75 | GAAAAAAAAATACATACACACAATATATTTATTTAT [CACACA_site3124] | 6.41
76 | TTCGTATGCATGAAATGTACATGATATTATTATAAA [XGTACX_site4542] | 6.53
77 | TTTTGTTAACATATAGAAAAGAACAAAGTTAAAAAG [XGTACX_negctrl_site462] | 6.7
78 | TATAAATTTGTTCAATGTACATGTAAAGATATAATC [XGTACX_site371] | 6.61
79 | ACCAATCCAAAAGAATGTACCCATGTTTTAAAATAT [XGTACX_site2907] | 6.39
80 | TTATTTTTTATAAAATGTACATATATTTTAAATATA [XGTACX_site4026] | 6.46
81 | TGAAGCAAAAACAAAACACACATATAAATAAATAAA [CACACA_site3925] | 6.71
82 | ATGTATATTTTTATGTGTACGTAATAAAACATAATA [XGTACX_site7777] | 6.72
83 | TTATTTTTTTTTAGAGCACACATTTTTAATAAGGTA [CACACA_site2133] | 6.83
84 | TTAATTAAATATAGGGGTACATATTATATATGTTTT [XGTACX_site3677] | 6.54
85 | ACGAAAAGATATATATGTACATATATTAAAAAAAAA [XGTACX_site1517] | 6.53
86 | AATATGGGCATACATGTGCACTTTTTCCCGTGGTTT | 9.3
87 | TTATATGCATATTTTTGTACACAACATTGTTGTATA [XGTACX_site8707] | 7.18
88 | AAATATTTCTGCAAGGTGCACTTTATAAATCTTTGA | 8.93
89 | AAGAAATTTATTTATTGTACAATATATAATTTGTTT [XGTACX_site2478] | 6.48
